Test results as given in PubChem BioAssay AID760 (NMMLSC, 2007).
Hit rate of the full screen: of about 190,000 compounds, about 360 (0.19%) were called active. The shares of active, inactive and inconclusive entries below differ from those in the screen.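 Rule for the calls: active = GTP binding activity at least 20 points away from 100%, either lowered or raised; inconclusive = signal likely due to the compound's own green fluorescence; inactive = the rest.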

target: Ras-related protein Rab-2A (Canis lupus familiaris) (UniProt P61105); test: Rab2 wt fluorescent GTP binding changes, either direction – biochemical, dog, bead-based flow cytometry, multiplex, primary screen (AID 760); settings: GST-Rab2 wt beads, Bodipy-GTP binding, at 10 µM;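 note: 0% = beads with excess unlabeled GTP and 100% = no-compound control corrected for plate trend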

GTP binding activity, inactive:
CCC(COC)NCc1cn(-c2ccc(OC)cc2)nc1-c1cccc(F)c1 (stereo not given) 97%, Cc1ccc(NC(=S)NNC(=O)c2cn(C)nc2C)cc1 114%, COc1ccc(CC(=O)NNC(=O)c2ccncc2)cc1 93%, O=C1N(Cc2cccnc2)C[C@@H]2C[C@@H](c3ccc4nsnc4c3)N3CCC[C@@]123 100%, COc1ccc(OC)c(NC(=O)c2ccno2)c1 100%, COc1ccc(CN(CC2CCCO2)C(=O)c2cc3sccc3n2C)c(OC)c1 (stereo not given) 99%, Cc1ncc(CO)c(/C=N/NC(=O)c2cc3c(s2)CCCC3)c1O 98%, Cc1ccc(-c2nn(-c3ccccc3)cc2NC(=O)CCl)cc1 93%, CC1=CC(=C(C#N)C#N)C=C(C)N1CCC(C)C 102%, COc1ccc(OC)c(NC(=O)CN(C)S(=O)(=O)c2ccc(Cl)cc2)c1 96%, O=C(N/N=C/c1ccc([N+](=O)[O-])o1)c1cn(-c2ccccc2)nc1-c1ccccc1 83%, COc1ccc(CCNC(=O)CCCCCNc2nc(=S)[nH]c3ccccc23)cc1OC 92%, Cc1cccc(NC(=O)Nc2cc(C)cc(C)n2)c1 102%, Cc1cccn2c(CNCC3(c4ccccc4)CCCC3)c(C(=O)N3CCOCC3)nc12 96%, CCN(CC(=O)Nc1ccccc1OC)CC(=O)Nc1sccc1C#N 95%, COC(=O)c1cccc(C(=O)N2CCCC(C(=O)c3cc(F)ccc3F)C2)c1 (stereo not given) 97%, Cn1cnnc1SCC(=O)c1ccc(O)c(O)c1 96%, O=c1c(/C=N/OCc2ccc(Cl)cc2Cl)c[nH]n1-c1cccc(Cl)n1 94%, O=C1C2C3C=CC(C4CC34)C2C(=O)N1/N=C/c1cccs1 (stereo not given) 97%, CCOC(=O)N1CCC(N2C(=O)c3ccccc3C2Nc2ccc(S(=O)(=O)N(CC)CC)cc2)CC1 (stereo not given) 95%, O=C(Nc1cc(C(F)(F)F)ccc1-n1cnc2ccccc21)c1ccccc1 99%, CCCn1c(SCC(=O)Nc2ccccc2N2CCCCC2)nc2c1c(=O)n(C)c(=O)n2C 98%, CCN(CC)CCN1C(=O)C(=O)/C(=C(/O)c2cnn(-c3ccccc3)c2C)C1c1cccnc1 (stereo not given) 100%, CCOC(=O)c1c(NC(=O)CSc2nnc(Cc3ccccc3)o2)sc(C(C)=O)c1C 103%, Cc1ncc(CN2CCC(CO)(Cc3ccccc3)CC2)s1 98%, Cn1ncc2c(N3CCN(c4ccc(Cl)c(Cl)c4)CC3)ncnc21 96%, CC(C)Cn1cc(Cl)c(=O)n(CC(C)C)c1=O 99%, CCOC(=O)Cc1cnc(N)s1 102%, Cc1ccc(S(=O)(=O)CCC(=O)OC(C)C(=O)c2c(C)[nH]c3ccccc23)cc1 (stereo not given) 99%, Cc1ccc(N=Nc2c(N)[nH]n3c(=O)cc(C)nc23)cc1 81%, CCOc1ccccc1NC(=S)N1CCN(c2nc(-c3ccc(F)cc3)cs2)CC1 106%

GTP binding activity, active:
O=[N+]([O-])c1cc(Cc2ccccc2)cc(C=Nc2ccc(N3CCOCC3)cc2)c1O 64%, COCc1cc(C)nc(N/N=C/c2ccc(-c3ccc(C(=O)O)c(Cl)c3)o2)c1C#N 77%, O=[N+]([O-])c1cc2oc3c(c2c(C=NCc2ccccc2)c1O)CCCC3 76%, COc1cc2ccccc2cc1C(=O)NC(=S)Nc1cccc(C(=O)O)c1 75%

GTP binding activity, inconclusive:
COc1ccccc1-n1cc([C@@H]2C[C@H]3CN(c4ccccc4)C(=O)[C@]34CCCN24)cn1 150%, CCNC(=O)COC(=O)c1ccc(S(=O)(=O)N2CCCCCC2)cc1 105%, COc1cccc(CNC(=O)C2CCN(S(=O)(=O)c3ccc4c(c3)CCC(=O)N4)CC2)c1 90%, O=C(Cn1cnc2ccccc2c1=O)NCCC(=O)Nc1ccc2c(c1)OCCO2 104%, Cc1sc(NC(=O)/C=C/c2ccc(C(C)C)cc2)c(C#N)c1C 96%, CSc1nc2ccccc2cc1/C=C(\C#N)c1ccc(Cl)c(Cl)c1 91%, CC(=O)C(Sc1ncnc2sc3c(c12)CCCC3)C(C)=O 92%, COc1ccccc1-c1ccc(SCC(=O)NCCc2ccccc2)nn1 93%, CCOc1ccc(NC(=O)NC(C)CC)cc1 (stereo not given) 95%, CCCn1c(=N)c(C(=O)NCc2ccc3c(c2)OCO3)cc2c(=O)n3cccc(C)c3nc21 81%, CCOc1cc(/C=C2\C(=O)N(Cc3ccc(C)cc3)C(C)=C2C(=O)OC)ccc1O 106%, Cc1nn(C)cc1/C=N/NC(=O)c1ccc2c(c1)OCO2 105%, c1ccc2oc(-c3ccc(Nc4nc(N5CCCCC5)nc(N5CCOCC5)n4)cc3)nc2c1 89%, CC1CC(NC(=O)C2(C)CC2(Cl)Cl)CC(C)(C)C1 (stereo not given) 102%, O=c1oc2ccc3ccccc3c2cc1-c1nnc(-c2cccs2)o1 94%, O=C(CN1C(=O)C2C3C=CC(C3)C2C1=O)NC1CCCc2ccccc21 (stereo not given) 107%, COc1ccc(C2=NOC(C(=O)NCc3ccco3)C2)cc1OC (stereo not given) 94%, C/C(=N\NC(=O)OC(C)(C)C)c1ccc(-n2ccnc2)cc1 98%, Cc1ccc(-n2cccc2/C=C2\C(=N)N3N=C(c4ccco4)SC3=NC2=O)cc1 85%, Cc1cc2cc(C)c3nnc(SCC(=O)NCc4ccc5c(c4)OCO5)n3c2cc1C 89%, CCC(C)NC(=O)CN(C)S(=O)(=O)c1ccc2c(c1)c(=O)n(C)c(=O)n2C (stereo not given) 100%, CC[C@@H](C)[C@H](NC(=O)C1CCN(C(=O)[C@@H](NS(=O)(=O)c2ccc(C)cc2)C(C)C)CC1)C(=O)O 104%, CC(C)CCOc1cccc(OCC(=O)O)c1 587%, CN1C(=O)c2ccccc2C(C(=O)NCCCN2CCCC2)C1c1c[nH]c2ccccc12 (stereo not given) 106%, O=C(CSc1nnc(-c2ccncc2)n1Cc1ccco1)c1ccc(Cl)cc1 99%, COc1ccc2c(CC(=O)OCC(=O)Nc3ccccc3[N+](=O)[O-])coc2c1 90%, CCOc1ccc(NC(=O)c2ccco2)c([N+](=O)[O-])c1 99%, CC(=O)Nc1ccc(N2CCCC2)cc1 106%, CN(Cc1ccccc1)C(=O)CCC(=O)N(C)Cc1ccccc1 103%, COc1cccc(/C(O)=C/c2nc3ccc(C(=O)NCCc4ccc(Cl)cc4)cc3[nH]c2=O)c1 106%, O=C(c1ccc2c(c1)OCO2)N1CCN(c2ncccn2)CC1 101%, O=C(CSc1nnc(SCc2ccccc2)s1)N/N=C/c1c(Cl)cccc1Cl 97%, CCOC(=O)c1c(NC(=O)COC(=O)c2ccc(O)cc2)sc(C(=O)N(C)C)c1C 86%, O=C(c1cc2nc(-c3ccco3)cc(C(F)(F)F)n2n1)N1CCCc2ccccc21 87%, COc1ccc(NC(=O)CSc2n[nH]c(C)c2[N+](=O)[O-])cc1 91%, CN(C)S(=O)(=O)Nc1ccccc1F 98%, COC(=O)c1cc(C(=O)OCC(=O)N(C)C2CCS(=O)(=O)C2)cc([N+](=O)[O-])c1 (stereo not given) 94%, Cc1cccc(NC(=O)COC(=O)c2cccc3c2C(=O)c2ccccc2C3=O)c1C 91%, Cc1ccc(OCc2nn3c(-c4ccco4)nnc3s2)cc1 101%, Cc1ccc(CN2C(=O)N/C(=C/c3ccc4c(c3)n(C)c(=O)n4C)C2=O)cc1 93%, O=C(CC(c1ccccc1)c1ccccc1O)NCCN1CCOCC1 (stereo not given) 101%, COc1ccc(-n2c(C)cc(/C=C3/SC(=S)N(C)C3=O)c2C)cc1 270%, Cc1cc(=O)[nH]c(-c2ccccc2O)n1 102%, C=CCn1c(=O)c2ccccc2n2c(SCc3cc(=O)n4ccsc4n3)nnc12 109%, COc1ccc(OCc2nc(N)nc(Nc3ccc(C)cc3)n2)cc1 105%, COc1cc(C=O)ccc1OCc1cccc(Br)c1 102%, Cc1cc(Oc2ccccc2)nc(SCC(=O)Nc2ccc(Cl)cc2Cl)n1 104%, COc1cccc(/C=N/NC(=O)c2[nH]c(C)c(C(=O)N/N=C/c3cccc(OC)c3)c2C)c1 89%, COCCCNC(=O)c1cc2c(-c3ccc(Cl)cc3)nn(C)c2s1 84%, CN(C)/C=C(\C#N)C(N)=C(C#N)C#N 79%, Cc1[nH]c2ccccc2c1C(=O)COC(=O)Cn1c(C(F)(F)F)nc2ccccc21 104%, COc1ccc(C(=O)N/N=c2\oc3ccccc3cc2C(N)=O)cc1 75%, O=C(Nc1c(F)cc(F)cc1Br)c1ccco1 103%, COc1cc2c(cc1NC(=O)CN1CCN(S(=O)(=O)c3ccc(F)cc3)CC1)oc1ccccc12 105%, Cc1sc2c(c1C)c(=O)nc1n2Cc2ccccc2-1 82%
